Source: PubChem BioAssay AID504466 (National Center for Advancing Translational Sciences (NCATS), 2011)
Out of some 330,000 compounds screened, about 4,200 (1.3%) were called active. The shares of active, inactive and inconclusive entries below differ from those in the screen. Calls come from the whole dose curve; as a rule, active = well fitted activation curve with a large enough effect; inconclusive = small, poorly fitted or top-dose-only effect; inactive = no such curve, though single readings can be large or run the other way. Where the call is inconclusive, the potency comes from a doubtful curve fit.

experiment: qHTS screen for small molecules that induce genotoxicity in human embryonic kidney (HEK293T) cells expressing luciferase-tagged ELG1; conditions: HEK293T ELG1-luciferase reporter, luminescence, 16 h; series mostly up to 46 µM; activity change, positive = activation: at the top concentration; note: nearly all actives have a fitted effect of over 60% in size; for activity change, positive = activation: % of control where 0% means no effect
Outline: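 Step 1: seed 2,000 HEK293T ELG1-luciferase cells per well. Step 2: add compound or DMSO, incubate 16 hr at 37 °C. Step 3: ONE-Glo, 30 min at room temperature, read luminescence.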
Potency is the fitted concentration of half-maximal effect; tags give direction and shape of the fitted curve.

| SMILES | activity change, positive = activation | Potency |
| --- | --- | --- |
| COc1cc(C(C)=O)ccc1OCC(=O)Nc1ccc(Cl)c(S(=O)(=O)N2CCOCC2)c1 | inactive: -2.2% |  |
| COc1ccc(C(=O)N/N=C(/C)c2cccc(NC(=O)C(F)(F)F)c2)cc1 |  | inconclusive: 14.6 µM [activator, single point] |
| N#Cc1ccc(C(=O)Nc2nc3ccccc3[nH]2)cc1 |  | inconclusive: 2.06 µM [activator, full curve] |
| CCC(=O)Nc1ccc2c(c1)C(=O)c1ccccc1C2=O |  | inconclusive: 4.61 µM [activator, full curve] |
| Cc1ccccc1OCC(=O)Nc1ccc2oc(=O)ccc2c1 |  | inconclusive: 4.11 µM [activator, full curve, poor fit] |
| COc1ccc(C(=O)CN2C(=O)NC3(CCCCCC3)C2=O)c(OC)c1 |  | inconclusive: 29.1 µM [activator, single point] |
| COc1ccc2c(n1)Sc1nc3ccccc3nc1N2 |  | active: 8.2 µM |
| Cc1cc(C(=O)COC(=O)/C=C/c2ccco2)c(C)n1C |  | inconclusive: 32.6 µM [activator, partial curve, poor fit] |
| C(=N\NC1=Nc2cccc3cccc1c23)/c1ccccn1 |  | inconclusive: 1.83 µM [activator, partial curve] |
| Cc1nnc(SCc2nc3ccccc3[nH]2)s1 | inactive: 5.42% |  |
| Cc1ccccc1-c1cc(-c2ccccc2O)on1 |  | inconclusive: 3.66 µM [activator, full curve] |
| Cc1ccc(-c2nnc(CCC(=O)NCC3C4CC5CC(C4)CC3C5)o2)s1 (stereo not drawn) |  | inconclusive: 16.4 µM [activator, partial curve, poor fit] |
| Cc1ccc2nc(SCC3CCCCO3)[nH]c2c1 (stereo not drawn) |  | inconclusive: 0.92 µM [activator, partial curve] |
| O=C(Nc1ccc(N2CCCCC2)cc1)c1ccccn1 |  | inconclusive: 0.073 µM [activator, partial curve, poor fit] |
| COc1ccc(N=Cc2c[nH][nH]c2=O)cc1 | inactive: 3.4% |  |
| CCOc1cc(/C=C(/C#N)c2ccc(F)cc2)ccc1OCc1ccc(C(=O)O)o1 | inactive: 1.39% |  |
| CCCC(=O)Nc1cc(-c2nn(C)c(=O)c3ccccc23)ccc1N1CCOCC1 |  | inconclusive: 16.4 µM [activator, partial curve, poor fit] |
| Cc1nc2cc(NC(=O)Nc3ccc(N4CCOCC4)cc3)ccc2n1C | inactive: 2.94% |  |
| Brc1ccc(N/N=C(/N=Nc2nn[nH]n2)c2ccccc2)cc1 | inactive: -2.23% |  |
| CSc1cccc(NC(=O)c2cccc3cccnc23)c1 |  | inconclusive: 16.4 µM [activator, partial curve, poor fit] |
| CCOc1ccc(NC(=O)CSc2nc(C3CC3)nc3ccccc23)cc1 |  | inconclusive: 32.6 µM [activator, partial curve, poor fit] |
| CC(NC(=O)COc1ccccc1Cl)c1ccccc1 (stereo not drawn) | inactive: -6.65% |  |
| Cc1cccc(-c2cc3c(nn2)-c2ccccc2C3=O)c1 |  | inconclusive: 2 µM [activator, full curve, poor fit] |
| CC1CCC2(CC1)NC(=O)N(CC(=O)Nc1ccc3c(c1)OCCCO3)C2=O (stereo not drawn) | inactive: -1.56% |  |

| SMILES | activity change, positive = activation | Potency |
| --- | --- | --- |
| Cc1cc(C)cc(OCCn2nnc3ccccc32)c1 |  | inconclusive: 20.6 µM [activator, partial curve, poor fit] |
| Cc1cccc(NC(=O)C(C)Oc2ccc(C)nc2[N+](=O)[O-])c1 (stereo not drawn) |  | inconclusive: 32.6 µM [activator, partial curve, poor fit] |
| c1csc(-c2nc(N3CCCCC3)no2)c1 |  | active: 14.6 µM |
| COc1cccc(NC(=O)C2CCN(C(=O)[C@@H]3Cc4ccccc4CN3)CC2)c1 | inactive: 4.28% |  |
| CSCCC(NC(=O)c1ccccc1Br)C(=O)N1CCCC(C(F)(F)F)C1 (stereo not drawn) | inactive: -0.114% |  |
| O=c1c2c(nc3n1CCCCC3)sc1c(O)cccc12 |  | active: 2.06 µM |
| COc1ccc(CCNC(=O)c2ccc(CS(=O)(=O)c3ccc(C)cc3)o2)cc1OC | inactive: -17.6% |  |
| Nc1nn2c(-c3ccccc3)cc(=O)[nH]c2c1N=Nc1ccc(O)cc1 | inactive: -10.9% |  |
| Cc1csc(NC(=O)c2cnc3ccccc3n2)n1 |  | inconclusive: 1.3 µM [activator, full curve] |
| CC(=O)N1CCN(C(=O)c2cc3c(s2)CCC(C)C3)CC1 (stereo not drawn) |  | inconclusive: 20.6 µM [activator, partial curve, poor fit] |
| CCN(CC)c1ccc(/C=N/NC(=O)CNC(=O)c2cccs2)cc1 | inactive: 4.59% |  |
| COC(=O)c1sccc1NC(=O)Nc1cc(C)cc(C)c1 |  | inconclusive: 16.4 µM [activator, partial curve] |
| O=C(NC(=S)Nc1ccccc1O)c1ccccc1Cl |  | inconclusive: 20.6 µM [activator, single point] |
| Cc1cccc(-n2ncc3c(N(CCO)CCO)ncnc32)c1 |  | inconclusive: 18.4 µM [activator, partial curve] |
| Cn1c(CCc2nc3ccccc3[nH]2)n[nH]c1=S |  | inconclusive: 18.3 µM [activator, partial curve, poor fit] |
| Cc1cc(C)c2nc(SCC(=O)Nc3cc(C)on3)c(C#N)cc2c1 |  | inconclusive: 18.3 µM [activator, single point] |
| COc1ccc(-c2csc(C)n2)cc1Br |  | inconclusive: 14.6 µM [activator, single point] |
| CCCS(=O)(=O)n1nc(-c2ccc(C)cc2)cc1N |  | inconclusive: 23.1 µM [activator, partial curve, poor fit] |
| CCN1CCCC1CNC(=O)c1ccc2c(=O)n(CCOC)c(=O)[nH]c2c1 (stereo not drawn) | inactive: 2.36% |  |
| CC(=O)Cc1nsc(Nc2ccccc2)n1 |  | inconclusive: 16.4 µM [activator, partial curve, poor fit] |
| CCc1ccc(C(=O)NNC(=O)OC)cc1 |  | inconclusive: 23.1 µM [activator, single point] |
| CCc1nnc(NC(=O)c2ccc(-c3ccccc3Cl)o2)s1 |  | active: 20.6 µM |
| Cc1ccc(C2=NN3C(=O)c4ccccc4C3C2)cc1 (stereo not drawn) |  | inconclusive: 9.2 µM [activator, partial curve] |
| Cc1sc(NC(=O)c2ccccc2F)c(CN2CCCCC2)c1C |  | inconclusive: 29.1 µM [activator, partial curve, poor fit] |
